PMC5892938
Some of the results follow. At the low end of the ranking the order means little.

Target: GST-SBP-SLBP (stem-loop binding protein) (UniProt Q14493)
Assay: targeted RNA Bind-n-Seq;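 further: DESeq read counts versus GST-SBP nonspecific binding control pulldown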
Settings: RBNS binding buffer: 25 mM Tris pH 7.5, 150 mM KCl, 3 mM MgCl2, 0.1% Tween, 0.5 mg/mL BSA, 1 mM DTT; 27 nM protein, 750 pM RNA pool; temperature not stated; high values mean tight binding

Sequence | binding signal (log2 fold change)
GGUCACGUCUCAAUCAACUCUAUUCCCAGGGAAAACCCUGGCAUAUUCAACAGCUCGCAGUCAAG | 0.0822
GGUCACGUCUCAAUCAACUCUUUCGAGGGGGGGAAAACCCCUUUGCCCUCACAAUCAACAGCUCGCAGUCAAG | 0.167
GGUCACGUCUCAAUCAACUCAUCUUCCAGGGAAAGCCCUGGCUUACUCAACAGCUCGCAGUCAAG | -0.304
GGUCACGUCUCAAUCAACUCUACUUCAGGAGUUUUCUCCUGCUUUCUCAACAGCUCGCAGUCAAG | 0.0407
GGUCACGUCUCAAUCAACUCCAAAGAGGGGGGGAAAACCCCUUUACCCUCAUCUUCAACAGCUCGCAGUCAAG | 0.443
GGUCACGUCUCAAUCAACUCGCAAGAGGGGGGGAAAACCCCUUUACCCUCACAUUCAACAGCUCGCAGUCAAG | 0.184
GGUCACGUCUCAAUCAACUCAAGGUCAGGAGUUUCCUCCUGUUAAUUCAACAGCUCGCAGUCAAG | -0.037
GGUCACGUCUCAAUCAACUCAAUAGAGGGGGGGAAAACCCCUUUGCCCUCGUAAUCAACAGCUCGCAGUCAAG | 0.156
GGUCACGUCUCAAUCAACUCAGUUCCAGGAGUUUACUCCUGCUAAUUCAACAGCUCGCAGUCAAG | -0.319
GGUCACGUCUCAAUCAACUCAUCCCCAGGAGUUUUCUCCUGUUUUCUCAACAGCUCGCAGUCAAG | -0.0205
GGUCACGUCUCAAUCAACUCAUCUUCAGGAGUUUCCUCCUGCAAACUCAACAGCUCGCAGUCAAG | -0.00471
GGUCACGUCUCAAUCAACUCUUUUCCAGGAGUUUACUCCUGCAUAUUCAACAGCUCGCAGUCAAG | -0.17
GGUCACGUCUCAAUCAACUCUACUCCCAGGGAAAUCCCUGGUAAUUUCAACAGCUCGCAGUCAAG | 0.0619
GGUCACGUCUCAAUCAACUCCUUCGAGGGGGGGAAAACCCCUUUACCCUCACAAUCAACAGCUCGCAGUCAAG | 0.304
GGUCACGUCUCAAUCAACUCUUCCCCCAGGGAAAACCCUGGCUUUUUCAACAGCUCGCAGUCAAG | -0.00642
GGUCACGUCUCAAUCAACUCUAUUUCAGGAGUUUCCUCCUGCUAAUUCAACAGCUCGCAGUCAAG | -0.1
GGUCACGUCUCAAUCAACUCUUUCUCAGGAGUUUUCUCCUGCUUUGUCAACAGCUCGCAGUCAAG | 4.48e-05
GGUCACGUCUCAAUCAACUCCAUCGAGGGGGGGAAAACCCCUUUACCCUCACCAUCAACAGCUCGCAGUCAAG | -0.222
GGUCACGUCUCAAUCAACUCAUCUCCAGGAGUUUACUCCUGCUUUCUCAACAGCUCGCAGUCAAG | -0.221
GGUCACGUCUCAAUCAACUCUAUUUCAGGAGUUUCCUCCUGUUUUUUCAACAGCUCGCAGUCAAG | -0.108
GGUCACGUCUCAAUCAACUCAACUCCAGGAGUUUCCUCCUGCUAACUCAACAGCUCGCAGUCAAG | 0.0626
GGUCACGUCUCAAUCAACUCUAUCCCCAGGGAAAACCCUGGUAAAUUCAACAGCUCGCAGUCAAG | 0.172
GGUCACGUCUCAAUCAACUCAUUUCCAGGAGUUUACUCCUGCUUUUUCAACAGCUCGCAGUCAAG | 0.0701
GGUCACGUCUCAAUCAACUCAUUCGCAGGAGUUUUCUCCUGGUUUCUCAACAGCUCGCAGUCAAG | -0.0566
GGUCACGUCUCAAUCAACUCAAUCUCAGGAGUUUCCUCCUGCAAAGUCAACAGCUCGCAGUCAAG | -0.0266

Sequence | binding signal (log2 fold change)
GGUCACGUCUCAAUCAACUCUAUCUCCAGGGAAAGCCCUGGCUUACUCAACAGCUCGCAGUCAAG | 0.329
GGUCACGUCUCAAUCAACUCAUCCUCCAGGGAAACCCCUGGUUUAUUCAACAGCUCGCAGUCAAG | 0.0497
GGUCACGUCUCAAUCAACUCAGUCCCAGGAGUUUUCUCCUGCAUUUUCAACAGCUCGCAGUCAAG | 0.0126
GGUCACGUCUCAAUCAACUCAUCUUCCAGGGAAACCCCUGGCAAUCUCAACAGCUCGCAGUCAAG | -0.0773
GGUCACGUCUCAAUCAACUCUUCGUCCAGGGAAAACCCUGGUUAUUUCAACAGCUCGCAGUCAAG | -0.166
GGUCACGUCUCAAUCAACUCGUUUUCAGGAGUUUUCUCCUGCAUUUUCAACAGCUCGCAGUCAAG | 0.0149
GGUCACGUCUCAAUCAACUCAAUCUCAGGAGUUUUCUCCUGCUAACUCAACAGCUCGCAGUCAAG | 0.0306
GGUCACGUCUCAAUCAACUCUAUUCCCAGGGAAACCCCUGGCUAUCUCAACAGCUCGCAGUCAAG | -0.0563
GGUCACGUCUCAAUCAACUCAAUCCCCAGGGAAACCCCUGGUUAAUUCAACAGCUCGCAGUCAAG | 0.0276
GGUCACGUCUCAAUCAACUCAUCCUCAGGAGUUUCCUCCUGUAAUCUCAACAGCUCGCAGUCAAG | -0.107
GGUCACGUCUCAAUCAACUCUAGUCCCAGGGAAAGCCCUGGCAAAUUCAACAGCUCGCAGUCAAG | 0.297
GGUCACGUCUCAAUCAACUCUACUUCAGGAGUUUACUCCUGUAAUCUCAACAGCUCGCAGUCAAG | 0.0643
GGUCACGUCUCAAUCAACUCAUGUCCAGGAGUUUACUCCUGUUUUCUCAACAGCUCGCAGUCAAG | 0.0173
GGUCACGUCUCAAUCAACUCUUUUCCCAGGGAAAGCCCUGGUUAACUCAACAGCUCGCAGUCAAG | 0.124
GGUCACGUCUCAAUCAACUCUUUUCCCAGGGAAACCCCUGGCUUUCUCAACAGCUCGCAGUCAAG | 0.149
GGUCACGUCUCAAUCAACUCUUCCCCCAGGGAAACCCCUGGUUAUGUCAACAGCUCGCAGUCAAG | 0.21
GGUCACGUCUCAAUCAACUCCCACGAGGGGGGGAAAACCCCUUUACCCUCACUCUCAACAGCUCGCAGUCAAG | -0.21
GGUCACGUCUCAAUCAACUCUUCCUCAGGAGUUUACUCCUGCUAAUUCAACAGCUCGCAGUCAAG | -0.0839
GGUCACGUCUCAAUCAACUCUUCUUCAGGAGUUUCCUCCUGCUAAUUCAACAGCUCGCAGUCAAG | 0.0448
GGUCACGUCUCAAUCAACUCUCAAGAGGGGGGGAAAACCCCUUUGCCCUCAUUUUCAACAGCUCGCAGUCAAG | 0.224
GGUCACGUCUCAAUCAACUCAUCUUCCAGGGAAACCCCUGGCUAUUUCAACAGCUCGCAGUCAAG | 0.197
GGUCACGUCUCAAUCAACUCCUAAGAGGGGGGGAAAACCCCUUUACCCUCAUCUUCAACAGCUCGCAGUCAAG | 0.0611
GGUCACGUCUCAAUCAACUCAACUUCCAGGGAAAGCCCUGGUUAUCUCAACAGCUCGCAGUCAAG | -0.0842
GGUCACGUCUCAAUCAACUCAUUUUCCAGGGAAACCCCUGGUUUUCUCAACAGCUCGCAGUCAAG | -0.0737
GGUCACGUCUCAAUCAACUCCUUAGAGGGGGGGAAAACCCCUUUACCCUCCAAAUCAACAGCUCGCAGUCAAG | 0.279

Sequence | binding signal (log2 fold change)
GGUCACGUCUCAAUCAACUCUAUUUCAGGAGUUUUCUCCUGUUUUGUCAACAGCUCGCAGUCAAG | 0.108
GGUCACGUCUCAAUCAACUCUUCCGCAGGAGUUUACUCCUGGUAUCUCAACAGCUCGCAGUCAAG | -0.0247
GGUCACGUCUCAAUCAACUCUUUCUCAGGAGUUUACUCCUGUUAUGUCAACAGCUCGCAGUCAAG | 0.0149
GGUCACGUCUCAAUCAACUCUUCCGAGGGGGGGAAAACCCCUUUACCCUCACAAUCAACAGCUCGCAGUCAAG | 0.125
GGUCACGUCUCAAUCAACUCUUCUUCCAGGGAAAACCCUGGCAAAUUCAACAGCUCGCAGUCAAG | 0.272
GGUCACGUCUCAAUCAACUCAUCAGAGGGGGGGAAAACCCCUUUACCCUCAACAUCAACAGCUCGCAGUCAAG | 0.276
GGUCACGUCUCAAUCAACUCUCAAGAGGGGGGGAAAACCCCUUUACCCUCAAUCUCAACAGCUCGCAGUCAAG | 0.197
GGUCACGUCUCAAUCAACUCAUCUUCCAGGGAAAACCCUGGCAAUCUCAACAGCUCGCAGUCAAG | 0.0651
GGUCACGUCUCAAUCAACUCAACUCCCAGGGAAACCCCUGGCUAAUUCAACAGCUCGCAGUCAAG | -0.104
GGUCACGUCUCAAUCAACUCAACUCCAGGAGUUUACUCCUGCUAUGUCAACAGCUCGCAGUCAAG | -0.0985
GGUCACGUCUCAAUCAACUCUUCGGAGGGGGGGAAAACCCCUUUACCCUCAACUUCAACAGCUCGCAGUCAAG | 0.237
GGUCACGUCUCAAUCAACUCAUCUUCAGGAGUUUCCUCCUGUAAUCUCAACAGCUCGCAGUCAAG | 0.114
GGUCACGUCUCAAUCAACUCUUCCUCAGGAGUUUCCUCCUGCUUUCUCAACAGCUCGCAGUCAAG | -0.086
GGUCACGUCUCAAUCAACUCAACUUCCAGGGAAACCCCUGGCAAACUCAACAGCUCGCAGUCAAG | -0.066
GGUCACGUCUCAAUCAACUCAAUUCCCAGGGAAAGCCCUGGUUUACUCAACAGCUCGCAGUCAAG | -0.096
GGUCACGUCUCAAUCAACUCAUUCCCAGGAGUUUACUCCUGCAAAUUCAACAGCUCGCAGUCAAG | 0.114
GGUCACGUCUCAAUCAACUCUUUUCCAGGAGUUUACUCCUGUAUAUUCAACAGCUCGCAGUCAAG | 0.218
GGUCACGUCUCAAUCAACUCAUCCUCAGGAGUUUUCUCCUGCUUACUCAACAGCUCGCAGUCAAG | 0.178
GGUCACGUCUCAAUCAACUCAUUCCCCAGGGAAAUCCCUGGUAUUUUCAACAGCUCGCAGUCAAG | 0.281
GGUCACGUCUCAAUCAACUCAUCGCCAGGAGUUUCCUCCUGCAUAUUCAACAGCUCGCAGUCAAG | 0.084
GGUCACGUCUCAAUCAACUCAACUCCCAGGGAAACCCCUGGCUUAUUCAACAGCUCGCAGUCAAG | 0.0582
GGUCACGUCUCAAUCAACUCAUCGUCCAGGGAAAUCCCUGGCUUUUUCAACAGCUCGCAGUCAAG | 0.0215
GGUCACGUCUCAAUCAACUCAAUUUCAGGAGUUUUCUCCUGUAUUCUCAACAGCUCGCAGUCAAG | 0.0556
GGUCACGUCUCAAUCAACUCAAUUUCAGGAGUUUCCUCCUGUUUUUUCAACAGCUCGCAGUCAAG | -0.149
